Whole data set: some 33,000 sequences, median “E-score (-0.5 to 0.5)” near -0.016, cut for the highest 2% near 0.31. Some of the results follow.
The sequences below were run against Cst6 (UniProt P40535) (assay: PBM E-score (8-mer binding enrichment) (E-score (-0.5 to 0.5)); higher = stronger / more preferred TF binding; most listed sequences are background and not binding sites). Conditions: protein concentration: 200 nM; construct: GST-DNA-binding domain.
Outline: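 Universal all-10-mer Agilent arrays, double-stranded by primer extension on fresh or once-stripped slides, were probed with about 100-200 nM GST-tagged yeast transcription factors made by PURExpress. Fluorescent anti-GST detected bound protein, and masliner normalised the scans. E-scores from the Universal PBM Analysis Suite were given to each ungapped eight-base word pooled with its reverse complement.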

| Sequence | PBM E-score |
| --- | --- |
| AAATTAGC | 0.153 |
| CACCTCCC | -0.206 |
| GTATATCA | 0.233 |
| GCCGAGCA | -0.177 |
| AAAGAGGA | -0.215 |
| AGAAGGGA | -0.314 |
| GGAGGTTA | -0.264 |
| ACGGCCGC | 0.149 |
| GGAAGGGA | -0.319 |
| CTCTAGGC | -0.143 |
| CCGGACGG | -0.109 |
| GGAGACCA | -0.246 |
| CTGCGTGC | -0.0523 |
| CCCTGCTC | -0.31 |
| CTTTACCC | -0.126 |
| CATATTCA | 0.213 |
| AGGGTGAA | -0.167 |
| CGGCATGA | 0.235 |
| CACTGATC | -0.0646 |
| CGCCCTTA | -0.209 |
| CCTGAAAC | 0.0564 |
| ACCCATTA | -0.0004 |
| GCGTATCC | -0.225 |
| CAAGTGTG | -0.0332 |
| AAGGGGCT | -0.0742 |

| Sequence | PBM E-score |
| --- | --- |
| GTGCTTGA | -0.108 |
| CGAACACG | 0.08 |
| CCCACGCG | -0.265 |
| GGCTTGGA | -0.226 |
| CCGATGCG | -0.185 |
| CGGTACGA | -0.051 |
| AGTCGTAT | -0.0183 |
| CGACCCTA | -0.273 |
| CTTAAATA | -0.00676 |
| GGTGACCA | -0.0455 |
| GGCGGACA | -0.203 |
| ACTCCCCG | -0.0792 |
| AATTGCCG | 0.123 |
| GCCAGTTA | -0.0579 |
| CGCGTTTA | 0.107 |
| AAGGAGAC | -0.192 |
| AGGTAGCA | -0.141 |
| GGTAATAA | 0.247 |
| AGAGTCAA | -0.198 |
| AGCAATAT | 0.055 |
| CTAATTAC | 0.243 |
| CGAAGCCG | -0.201 |
| ACATGCTA | -0.174 |
| CATGGGAA | -0.0251 |
| ATGTACGG | 0.0265 |

| Sequence | PBM E-score |
| --- | --- |
| CTTGTGGA | -0.0842 |
| GATGGTAA | -0.0499 |
| GACAGAGA | -0.152 |
| CGACGTCG | -0.0227 |
| GATTATCA | 0.109 |
| AGTTGGCG | 0.00931 |
| CGAAGTCG | 0.132 |
| ACCATAGG | -0.168 |
| GAGTTAGA | -0.0254 |
| AATAAAAA | 0.255 |
| ATCGGTGG | -0.00306 |
| ATCCGATG | 0.154 |
| CAGAGCAC | -0.0324 |
| GGGGGCAC | -0.302 |
| GATCTGGC | 0.0213 |
| CGCACGCG | -0.109 |
| GAATGGGC | -0.14 |
| ACTAAAGG | -0.0814 |
| ATTCACAA | 0.221 |
| CCCCTTCC | -0.246 |
| GTCCCCTA | -0.288 |
| CATACGAA | 0.154 |
| CTTCCCGC | -0.0811 |
| AGTGAACT | -0.0632 |
| AATAAATC | 0.114 |

| Sequence | PBM E-score |
| --- | --- |
| CCTAATCC | -0.175 |
| AAAAGGCG | 0.179 |
| GATAAGGC | 0.0661 |
| GAGTTGAA | -0.116 |
| CGAAGGCC | -0.268 |
| AGAGCGGG | -0.216 |
| AGGGCCCA | -0.355 |
| ACCCATCA | -0.0348 |
| AACTGGCT | -0.205 |
| CACCCTAC | -0.124 |
| CTGGCGCC | 0.0343 |
| CGTGATCC | -0.029 |
| CTGAGCTC | -0.0539 |
| CGGGGAGA | -0.285 |
| CCCTAAAG | -0.185 |
| GCATATAA | 0.166 |
| CTCGCTCA | 0.0834 |
| CTGCCTTA | -0.117 |
| ATCGGATA | 0.115 |
| CACATTGC | -0.0114 |
| CTTCATTC | 0.0742 |
| ATATCTGG | -0.194 |
| ACTACGAC | -0.05 |
| CTCCGCAG | -0.225 |
| ATACGTGG | 0.176 |

| Sequence | PBM E-score |
| --- | --- |
| CGTAGAAG | 0.105 |
| GGTTTGAC | -0.0255 |
| TAAATCCA | 0.0464 |
| GGAAGCAC | -0.0203 |
| AGGGGAAT | 0.0579 |
| CGACTCAC | -0.305 |
| CATATCCC | 0.0321 |
| CTAGAGAA | -0.0852 |
| CTTAGAGA | -0.0352 |
| CGCAAAAG | 0.00977 |
| TATTGCAA | 0.11 |
| CGTACCTA | -0.059 |
| CAAAAGAC | 0.13 |
| ACTATATG | 0.0805 |
| TTAGTGAA | 0.0552 |
| AGAATCGG | 0.0442 |
| CAAGGCCC | -0.245 |
| GAGGATGC | -0.0884 |
| GATGCCCA | 0.0611 |
| TACCAGGA | -0.146 |
| AACCTCAG | -0.105 |
| AAGCAAGG | -0.0871 |
| ATGTAGCA | -0.124 |
| TAAAGTCA | 0.0375 |
| AGCTCACA | 0.0937 |

| Sequence | PBM E-score |
| --- | --- |
| CACTAGAC | 0.0077 |
| ACTGCTAA | -0.183 |
| ATAGTGCA | -0.018 |
| GGATCCTA | -0.199 |
| AGCTTTAT | 0.0216 |
| AAATAGCA | 0.0395 |
| GACATTGA | 0.096 |
| CCATCCAG | -0.232 |
| CTCGCGGA | -0.13 |
| ATTTCCAA | -0.0596 |
| AGCCATGC | -0.115 |
| AGATGGGG | -0.244 |
| AACTTAGA | 0.154 |
| ACGAGCGT | -0.138 |
| CGTCTGGA | -0.23 |
| ACCCCTAA | -0.181 |
| ACAAAGGT | 0.15 |
| ACAAACGT | 0.132 |
| ACACACAA | 0.197 |
| CGAGCGCC | -0.215 |
| CGAGGACC | -0.14 |
| AGCTGAGG | -0.147 |
| CCGGTTCG | -0.248 |
| GATGCAGA | 0.0354 |
| CTAACGAG | -0.0222 |

| Sequence | PBM E-score |
| --- | --- |
| CCTGAACG | -0.0678 |
| CCAACCGA | -0.0928 |
| AGGCCCCA | -0.27 |
| ACGTAGAA | 0.224 |
| TGAATCAA | 0.15 |
| ATCATCTC | 0.216 |
| GTTCAACA | 0.028 |
| AAACACCA | 0.0796 |
| ACGGCCCA | -0.0617 |
| AGTTTCCG | 0.0164 |
| CAGTCTAG | -0.319 |
| ATTGGGCA | -0.0812 |
| CTAGGTCA | 0.109 |
| ATCGCTGG | -0.217 |
| GGTTCCAC | -0.256 |
| CGCCCGGA | -0.101 |
| CACTGCAA | 0.187 |
| CCATAAGG | -0.0877 |
| TAAGGTCA | 0.0174 |
| AATCGGCG | 0.113 |
| ACGTCGCT | 0.0297 |
| AGGACTTG | -0.308 |

From the supplement of paper PMC3334620
